Screen size: about 150,000 compounds; about 540 (0.36%) showed an effect of 50% or more. Some of the results follow.
What follows are compounds tested on Plasmodium falciparum (assay: Primary screen in NF54 nanoGlo assay, in single point, at 2uM, 72h; a lower Z score goes with more inhibition). Conditions: timepoint 72 hour.
Assay type: functional, Erythrocyte

SMILES	% Inhibition [%]	Z score
O=C(C1Cc2ccccc21)N1CCC(c2nnc[nH]2)C1 (stereo unspecified)	-6	0.81
CC1CC(C)CN(CCCN2C(=O)c3ccc(-c4ccco4)n3CC2(C)C(=O)NC2CCCCCC2)C1 (stereo unspecified)	-12	1.49
CN(C)c1noc(-c2cccc3c2OCC3(C)C)n1	-1	0.19
c1cnn(Cc2nc(C3CCOCC3)nn2CCc2cnc[nH]2)c1	-14	2.61
CCCc1nccn1Cc1nc(-c2ccc(C)s2)oc1C	-5	0.76
CC(C)=CCN1C(=O)[C@@H]2CC[C@H]1CN(c1nnc(C(C)C)s1)C2	-12	1.5
CC1CCCC(OCC(=O)N2CC(C)C(N(C)C)C2)C1 (stereo unspecified)	-10	1.34
Cc1cc(C(=O)N[C@@H](Cn2nccn2)c2ccccc2)n(C)n1	-8	1.27
Cc1ccc(NC(=O)CCS(=O)(=O)c2ccc3c(c2)CC(=O)N3C)cc1N(C)C	-1	0.09
N#Cc1cc(CN2CCN3CCCC[C@H]3C2)c(F)cc1F	-8	1.31
CC1CCN(c2nc3c(c(Oc4ccccc4)n2)CN(C(=O)c2ccco2)CC3)CC1	-4	0.56
O=C(NCCc1cscn1)Nc1cc(F)cc(Br)c1	-6	1.08
CCc1sc(NC(=O)c2cc3c([nH]c2=O)CCCC3=O)nc1-c1ccc2c(c1)CCCC2	-1	0.11
Cc1cnn(C(=O)Cn2nc(C(F)F)cc2C)c1	-3	0.52
COc1ccc(C2(NCc3cc(O)cc(Cl)c3)CCOCC2)cc1	27	-0.14
O=C(Nc1ccc(N2CCN(c3ccccc3)C2=O)nc1)C1CCCCC1	-19	2.02
O=C(Cc1cccc2ccccc12)NOCC(=O)NC1CCCC1	-8	0.68
CC(C)C(=O)N[C@@H](CC(=O)O)c1cccc(Br)c1	-7	0.95
C=CCC(CC=C)C(=O)NS(=O)(=O)c1ccc(F)c2ncccc12	-5	0.9
Cn1nncc1S(=O)(=O)N(CC1CC1)CC1CC1	-22	2.61
COC(=O)c1cccc(S(=O)(=O)NCCc2nc(C)no2)c1C	-14	1.28
CO[C@H]1Cc2ccccc2N(Cc2ccccn2)C1	7	-1.06

SMILES	% Inhibition [%]	Z score
Cc1nc(N)c(C#N)c(-c2ccc3c(c2)OCO3)c1C	-1	0.12
CCC1(NC(=O)Cc2cccc3ccccc23)CCOCC1	33	-3.72
CN(C)c1ccnc(NC(=O)N[C@@H]2CCCc3cccnc32)n1	-2	0.37
CCn1cc(Br)c(C(=O)N(C)c2cccc(C)n2)n1	-2	0.26
O=C(NCc1cccnc1)N1CCC(C(F)(F)F)(C(F)(F)F)C1	-12	1.7
O=C1CC[C@@]2(CCCN(c3ncc(F)cn3)C2)CN1Cc1cccnc1	10	-0.94
CN1CCC(NC(=O)Nc2cccc(N(C)C)n2)CC1	-14	2.35
O=C(c1ccsc1)N1CCN(c2c(F)c(F)c(F)c(F)c2F)CC1	-9	1.78
Cc1noc(NCc2cccc(-c3cccnc3)c2)n1	10	-1.16
Cc1nn(C)c2sc(C(=O)N3c4ccccc4C[C@@H]3C)cc12	-4	0.55
CCn1c(=O)n(CC(=O)N2CCN(C3CCCCC3)CC2)c(=O)c2cnc(-c3ccccc3)nc21	-2	0.38
CCOC(=O)N1CCN(c2oc(C(C)C)nc2C#N)CC1	0	-0.03
C[C@@H](C(N)=O)n1cc(-c2cccc(C(=O)NCCCc3ccco3)c2)cn1	-1	0.2
CCOc1ncccc1CNC(=O)CNC(C)=O	36	-4.05
COc1ccccc1-c1noc(-c2cnn(C(C)C)c2C)n1	-6	0.58
CC(C)(C)NC(=O)Cn1ccn2nc(-c3ccc(F)cc3)c(CO)c2c1=O	-5	0.53
Cc1ccc(C2=NN(C(=O)CN3CCN(Cc4ccccc4)CC3)[C@H](c3ccc(C)cc3)C2)cc1	-8	1.44
C#CCOc1ccc(N(C)CC(=O)NCc2ccco2)cc1	-2	0.18
CC(C)c1noc(CN(C)C[C@@H]2CCCN3CCCC[C@H]23)n1	-1	0.11
O=C1Nc2ccc(Br)cc2C1=O	36	-1.16
CC(C)CCNC(=O)CCC[C@@H]1[C@H]2CCCN3CCC[C@@H](CN1C(=O)c1cccnc1)[C@@H]23	10	-2.05

Source: ChEMBL document CHEMBL4888484, “Replenishing the malaria drug discovery pipeline: Screening and hit evaluation of the MMV Hit Generation Library 1 (HGL1) against asexual blood stage Plasmodium falciparum ,using a nano luciferase reporter read-out” (2022)
